# Measured values: PubChem BioAssay AID1347165 (National Center for Advancing Translational Sciences (NCATS), 2019)
# The campaign covered roughly 220,000 compounds. About 5,700 (2.6%) were called active. Inconclusive results, whose numbers are uncertain, are shown with a selection of clear calls. Calls follow the shape of the dose curve; as a rule, active = well fitted inhibition curve with a large enough effect; inconclusive = small, poorly fitted or top-dose-only effect; inactive = no such curve, though single readings can be large or run the other way. Potencies of inconclusive entries are doubtful fits and often do not repeat.
# Molecular target: Lysine-specific demethylase 5B (Homo sapiens) (UniProt Q9UGL1)
# Test: Primary screen for KDM5B Histone Demethylases FDH-coupled qHTS; also: nearly all actives have a fitted effect of over 70% in size; as to activity change, negative = inhibition: 0% is about no effect
# Details: FDH-coupled NADH fluorescence (FDH is formaldehyde dehydrogenase); activity change, negative = inhibition: at 57.7 µM (top of the series) unless noted
# Method in brief: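 Here, H3K4me3 peptide (12.5 µM in substrate mix) is demethylated by KDM5BΔAP, 200 nM final, after 10 min compound exposure. Formaldehyde product is coupled through FDH (0.25 U/mL in mix) to NADH fluorescence; 30-min ΔRFU feeds dose-response curves.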
# Potency is read from the fitted curve at half-maximal effect; tags tell the direction and shape of the fitted curve.
# Sequence of UniProt Q9UGL1 (Q9UGL1 whole entry, looked up): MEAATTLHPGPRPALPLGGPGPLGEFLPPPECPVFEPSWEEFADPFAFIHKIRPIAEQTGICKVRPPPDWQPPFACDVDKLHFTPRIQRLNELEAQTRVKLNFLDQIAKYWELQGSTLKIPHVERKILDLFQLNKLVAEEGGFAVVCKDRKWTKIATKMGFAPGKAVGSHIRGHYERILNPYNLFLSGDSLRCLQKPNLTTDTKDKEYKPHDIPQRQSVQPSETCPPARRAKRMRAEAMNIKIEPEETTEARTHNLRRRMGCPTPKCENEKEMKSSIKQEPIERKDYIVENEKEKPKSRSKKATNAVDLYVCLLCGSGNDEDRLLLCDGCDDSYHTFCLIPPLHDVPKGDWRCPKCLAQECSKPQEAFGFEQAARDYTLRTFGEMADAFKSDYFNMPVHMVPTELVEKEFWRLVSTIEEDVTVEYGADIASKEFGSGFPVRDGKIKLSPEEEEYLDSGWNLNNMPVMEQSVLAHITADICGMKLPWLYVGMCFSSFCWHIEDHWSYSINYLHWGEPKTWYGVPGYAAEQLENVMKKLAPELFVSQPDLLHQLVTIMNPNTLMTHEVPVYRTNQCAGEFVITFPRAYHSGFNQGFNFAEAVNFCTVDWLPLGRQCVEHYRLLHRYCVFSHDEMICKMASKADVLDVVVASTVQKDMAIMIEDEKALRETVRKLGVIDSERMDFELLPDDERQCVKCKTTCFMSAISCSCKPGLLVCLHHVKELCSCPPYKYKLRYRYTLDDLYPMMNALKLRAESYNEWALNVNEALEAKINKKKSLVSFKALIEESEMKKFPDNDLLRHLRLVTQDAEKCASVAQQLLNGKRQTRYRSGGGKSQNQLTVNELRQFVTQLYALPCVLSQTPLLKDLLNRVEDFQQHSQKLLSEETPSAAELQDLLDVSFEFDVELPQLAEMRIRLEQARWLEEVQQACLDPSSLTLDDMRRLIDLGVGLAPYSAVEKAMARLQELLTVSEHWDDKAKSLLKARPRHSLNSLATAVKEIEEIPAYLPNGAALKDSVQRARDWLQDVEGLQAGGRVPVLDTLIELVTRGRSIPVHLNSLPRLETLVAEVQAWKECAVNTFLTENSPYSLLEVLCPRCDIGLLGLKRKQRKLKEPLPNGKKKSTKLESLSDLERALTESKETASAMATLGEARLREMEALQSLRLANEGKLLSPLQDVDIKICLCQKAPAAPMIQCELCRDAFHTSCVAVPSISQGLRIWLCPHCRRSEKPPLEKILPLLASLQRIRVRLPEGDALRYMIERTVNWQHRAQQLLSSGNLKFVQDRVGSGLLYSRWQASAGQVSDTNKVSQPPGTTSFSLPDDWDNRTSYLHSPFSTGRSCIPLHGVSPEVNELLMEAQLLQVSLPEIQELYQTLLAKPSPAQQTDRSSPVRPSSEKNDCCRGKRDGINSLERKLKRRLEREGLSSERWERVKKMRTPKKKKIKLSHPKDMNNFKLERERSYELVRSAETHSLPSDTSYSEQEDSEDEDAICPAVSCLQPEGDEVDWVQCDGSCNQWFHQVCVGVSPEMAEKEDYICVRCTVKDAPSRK
SMILES,Potency,"activity change, negative = inhibition"
Cc1cc2nc(-c3cccc(NC(=O)c4cccnc4)c3)oc2cc1C,inactive,–
CC1CCN(S(=O)(=O)c2cc3cc(F)ccc3oc2=O)CC1,inactive,–
CN(c1cc(=O)c2ccnc(Nc3ccc(F)c(Cl)c3)c2o1)C1CCOCC1,active: 28.2 µM,–
CCc1cc(=O)oc2c(C)c(OC(C)C(=O)NCc3cccnc3)ccc12 (configuration not stated),"inconclusive: 39.8 µM [inhibitor, single point]",–
COc1cc(Cl)cc(CN2CCN(c3ncccc3C#N)CC2)c1OC,"inconclusive: 25.1 µM [inhibitor, partial curve, poor fit]",–
O=C(c1ccccc1Cl)N1CCCC2(C1)Nc1cccnc1NC2=NC1CCCC1 (configuration not stated),"inconclusive: 28.2 µM [inhibitor, partial curve, poor fit]",–
Cc1c(C(=O)Nc2cccc(C(F)(F)F)c2)sc2nc[nH]c(=O)c12,"inconclusive: 17.8 µM [inhibitor, partial curve, poor fit]",–
Cc1ccc(S(=O)(=O)c2nc(-c3ccccc3)oc2N(C)C)cc1,"inconclusive: 39.8 µM [inhibitor, partial curve, poor fit]",–
CC1=C(C(=O)OC(C)C)C(c2ccccc2C)N2C(CC(=O)NCC3CC3)=CSC2=N1 (configuration not stated),"inconclusive: 25.1 µM [inhibitor, partial curve]",–
CC(Cn1cncn1)Nc1ccc(-c2nc(Cc3ccc(F)cc3)no2)cn1 (configuration not stated),active: 25.1 µM,–
O=C(NCC(=O)N1CCN(c2ccccn2)CC1)c1cc2ccccc2[nH]1,active: 14.1 µM,–
Cc1cc(-c2nccc3c(=O)cc(N(C)c4ccccc4)oc23)ccn1,"inconclusive: 14.1 µM [inhibitor, partial curve, poor fit]",–
O=C(NCc1ccc(F)cc1)c1cnc2n[nH]c(-c3ccccc3)c2n1,inactive,–
O=C(c1ccc2c(c1)OCO2)N1CCC(c2n[nH]c(=O)n2-c2ccccc2)CC1,inactive,–
Cc1ccc(C(=O)N2CCN(c3nnc4ccccn34)CC2)cc1,active: 28.2 µM,–
CC(C)(C)CC(=O)NCC(O)c1ccccc1C(F)(F)F (configuration not stated),inactive,–
Cc1nc2c3c(C)c(C)n(Cc4ccccc4)c3ncn2n1,"inconclusive: 28.2 µM [inhibitor, partial curve, poor fit]",–
COCC(=O)n1nc(-c2ccco2)nc1NCc1ccccc1Cl,inactive,–
C=CCn1c(SCC(=O)N2CCOCC2)nc2c([nH]c3ccccc32)c1=O,"inconclusive: 22.4 µM [inhibitor, single point]",–
COc1cc(C=O)c(Br)cc1OCCc1ccccc1,inactive,–
C#CCNC(=O)CSc1nc2ccccc2nc1C,inactive,–
CN(Cc1ccsc1)C(=O)Cc1cccc(F)c1,inactive,–
CCNc1nc2c(s1)C(c1cccnc1)CC(=O)N2 (configuration not stated),"inconclusive: 25.1 µM [inhibitor, partial curve, poor fit]",–
Cc1ccccc1OCC(=O)Nc1ccc2oc(=O)ccc2c1,"inconclusive: 25.1 µM [inhibitor, single point]",–

SMILES,Potency,"activity change, negative = inhibition"
COCC(=O)N1CCCC(C(=O)NCCNc2ncccc2C)C1 (configuration not stated),"inconclusive: 31.6 µM [inhibitor, partial curve, poor fit]",–
O=c1nc(SCc2cccc(C(F)(F)F)c2)nc2ccccn12,"inconclusive: 39.8 µM [inhibitor, single point]",–
O=C1NCN(Cc2ccc(Cl)cc2)C12CCN(CC1CC1)CC2,inactive,–
O=C1CCC2(CCCN(c3ncc(Cl)cc3F)C2)CN1Cc1cccnc1 (configuration not stated),active: 28.2 µM,–
COc1c(C2CC(=O)Nc3c2ncn3-c2cccc(Cl)c2)cc2c(c1OC)OCO2 (configuration not stated),"inconclusive: 14.1 µM [inhibitor, partial curve, poor fit]",–
CC(=O)C1=C(C)N(C2CCCCC2)C(=O)C1(NC(=O)c1ccc(C(C)(C)C)cc1)C(F)(F)F (configuration not stated),inactive,–
O=C(CCc1nc2ccccc2s1)N1CCC(N2CC3CC(C2)[C@H]2CCCC(=O)N2C3)CC1 (some centres not stated),"inconclusive: 15.8 µM [inhibitor, partial curve]",–
CC(C)=CC(=O)N1C[C@@H](NC(=O)Nc2ccc(F)cc2F)C[C@H]1C(=O)N[C@H](Cc1c[nH]c2ccccc12)C(N)=O,inactive,–
COc1ccc(N2CCN(c3nc(C(=O)NCc4ccc(C)c(C)c4)cs3)CC2)cc1,inactive,–
COc1ccc(OC)c(CN2CCN(c3cccc(C)c3C)CC2)c1,"inconclusive: 25.1 µM [inhibitor, partial curve, poor fit]",–
Cc1c(NC(=S)N/C(=N/S(=O)(=O)c2ccc(Cl)cc2)c2ccccc2)c(=O)n(-c2ccccc2)n1C,"inconclusive: 20 µM [inhibitor, partial curve, poor fit]",–
CC(C)C(C)NC(=O)CCn1cnc2c1c(=O)n(C)c(=O)n2C (configuration not stated),inactive,–
COc1ccc(C(=O)/C=C/c2cn(CC(O)CN3CCc4ccccc43)c3ccccc23)cc1OC (configuration not stated),"inconclusive: 17.8 µM [inhibitor, partial curve, poor fit]",–
Cc1cccc(C(=O)N2CCC(OC3CCN(Cc4ccccc4)CC3)CC2)c1,inactive,–
CNCC(=O)N1CCN(Cc2nc(C3CC3)no2)CC(O)C1 (configuration not stated),"inconclusive: 35.5 µM [inhibitor, partial curve, poor fit]",–
CN1CC2(CCN(Cc3cccn3C)CC2)CC1C(=O)N1CCOCC1 (configuration not stated),active: 15.8 µM,–
CCC(C(=O)NCCn1ccn2nc(-c3ccc(OC)cc3)cc2c1=O)c1ccccc1 (configuration not stated),active: 20 µM,–
N#Cc1ccc(C(=O)Nc2nc3ccccc3[nH]2)cc1,"inconclusive: 31.6 µM [inhibitor, single point]",–
Cc1cn2nc(C(=O)NCc3cccc(Cl)c3)cc2c(N2CCSCC2)n1,active: 14.1 µM,–
CC(C)NC(=O)c1ccc(Cn2c(SCc3ccc(F)cc3)nc3cccnc32)cc1,"inconclusive: 14.1 µM [inhibitor, partial curve, poor fit]",–
O=C(CCN1CCOCC1)N1c2ccccc2Sc2ccc(Cl)cc21,"inconclusive: 39.8 µM [inhibitor, single point]",–
O=C(CCn1c(=O)c2cccn2c2cccnc21)N1CCN(c2cccc(C(F)(F)F)c2)CC1,"inconclusive: 25.1 µM [inhibitor, single point]",–
O=c1c2nc(Nc3cccnc3)ccc2ncn1-c1ccccc1,"inconclusive: 39.8 µM [inhibitor, single point]",–
COCC1CN(C)CC12CCN(C(=O)c1cccc(Br)c1)CC2 (configuration not stated),"inconclusive: 25.1 µM [inhibitor, partial curve, poor fit]",–

SMILES,Potency,"activity change, negative = inhibition"
O=C(c1ccc(N2CC3CC(C2)[C@H]2CCCC(=O)N2C3)nc1)N1CCC(Cc2ccccc2)CC1 (some centres not stated),active: 31.6 µM,–
CCc1ccc(C(N)CC(=O)OC)cc1 (configuration not stated),inactive,–
O=C(Nc1ccccc1)c1ncoc1-c1ccc(Cl)cc1,"inconclusive: 39.8 µM [inhibitor, single point]",–
CN(C)C(=O)N1CCCN(c2nc3ncccc3o2)CC1,active: 28.2 µM,–
O=C(COc1ccccc1Cl)Nc1ccc(-c2nc3ccccc3s2)cc1,"inconclusive: 1.78 µM [inhibitor, full curve, poor fit]",–
COc1cc(OC)c2cc(C(=O)Nc3ccccc3)[nH]c2c1OC,"inconclusive: 14.1 µM [inhibitor, partial curve, poor fit]",–
C[C@H](NC(=O)c1ccccc1)C(=O)N1CCN(c2ccccc2)CC1,inactive,–
Cc1sc2nc(CN3CCCCC3)nc(Sc3nnnn3C3CC3)c2c1C,"inconclusive: 7.94 µM [inhibitor, full curve, poor fit]",–
Cc1ccc(CCC(=O)Nc2cccc3cccnc23)cc1,inactive,–
Cn1c(CSc2ccccc2)nc2c1c(=O)[nH]c(=O)n2C,inactive,–
CCC(C)NC(=O)Cc1csc(NC(=O)Nc2ccccc2)n1 (configuration not stated),inactive,–
CCc1cccc(CC)c1NC(=O)c1ccc2c(c1)CCC2,inactive,–
COc1ccc(NC(=O)c2cc3ccccc3o2)c(OC)c1,"inconclusive: 44.7 µM [inhibitor, single point]",–
O=S(=O)(c1cccc(F)c1)N1CCCC(Cn2c(C3CC3)nc3cccnc32)C1 (configuration not stated),inactive,–
COc1ccc(NC(=O)C(NS(=O)(=O)c2cccc3nsnc23)C(C)C)cc1 (configuration not stated),–,inconclusive: -32.5% [inhibitor] [at 11.5 µM]
O=C(Cn1c(=O)oc2cc(S(=O)(=O)NCc3ccccc3)ccc21)Nc1cccc(F)c1,"inconclusive: 31.6 µM [inhibitor, single point]",–
COc1ccccc1CNc1nc2c(S(=O)(=O)c3ccc(C)c(C)c3)nnn2c2ccc(Cl)cc12,"inconclusive: 35.5 µM [inhibitor, single point]",–
COc1ccc(N2CC3CCC(C2)N3Cc2ccc(C#N)cc2)cc1,"inconclusive: 100 µM [inhibitor, partial curve, poor fit]",–
CC(C)C1=NOC2(CCN(C(=O)c3ccccc3)C2)C1 (configuration not stated),inactive,–
COc1cccc(-c2noc(-c3ccc(-c4cn[nH]c4)nc3)n2)c1OC,"inconclusive: 25.1 µM [inhibitor, partial curve, poor fit]",–
CC(=O)Nc1ccccc1NC(=O)CN1CCCC(C(N)=O)C1 (configuration not stated),inactive,–
CCCn1c(=O)[nH]c(=O)c2c1nc(-c1cccc(OC)c1)n2CCOC,"inconclusive: 25.1 µM [inhibitor, partial curve, poor fit]",–
COc1ccc2c(c1)C=C(CN1CCCn3nc(C(C)O)cc3C1)CO2 (configuration not stated),"inconclusive: 22.4 µM [inhibitor, single point]",–
O=C(N/N=C/c1ccccn1)c1cc[n+]([O-])cc1,"inconclusive: 39.8 µM [inhibitor, partial curve, poor fit]",–
